Measurements published in PubChem BioAssay (NCI).
Several values for one entry are separate records, joined by “and”; a condition that tells them apart may be missing. Identical values can stand only once.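 Assay format: 96-well plates, 48-hour exposure. GI50 marks 50% less growth. TGI is the concentration that stops growth completely.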

system: NCI-H322M lung; assay: NCI anticancer screen, dose series, 48 h

Row | SMILES | TGI | GI50
1 | O=C1Oc2ccccc2C(=O)/C1=C/N1C(=O)N/C(=C\c2cccc(O)c2)C1=O | > 100 µM | 
2 | O=C(O)CCCSc1nc2ccccc2s1 | > 100 µM | 
3 | CCN(CC)CCCOc1cc(O)c2c(=O)cc(-c3ccccc3)oc2c1 | 27.4 µM | 8.53 µM
4 | c1ccc(-c2nnc(Nc3ccc4c(c3)OCCO4)o2)c(NCc2ccncc2)c1 | > 100 µM | 0.0864 µM
5 | ClC1=NC(Cl)C(Cl)=N/C1=N\c1ncn[nH]1 (stereo not drawn) | 20.6 µM | 7.68 µM
6 | Nc1ccc2cc3[nH]c4cc(N)ccc4c3nc2c1 | 2.51 µM | 
7 | ICCC(c1ccccc1)(c1ccccc1)c1ccccc1 | 25.1 µM | 12.3 µM
8 | CC[N+]1(C)CCC(O)(c2ccccc2)C(C(=O)c2ccccc2)C1 (stereo not drawn) | 34.1 µM | 
9 | COc1cc(C)c2c(=O)c3c(oc2c1)C(=O)c1c(O)c(OC)cc(O)c1C3=O | 15.5 µM | 
10 | O=C(O)CCCCCO | > 100 µM | 
11 | Cc1ccc(S(=O)(=O)SCc2ccccc2CSS(=O)(=O)c2ccc(C)cc2)cc1 | > 100 µM | 
12 | CO[C@H]1C[C@@H]2CC[C@@H](C)[C@@](O)(O2)C(=O)C(=O)N2CCCC[C@H]2C(=O)O[C@H]([C@H](C)C[C@@H]2CC[C@@H](OP(C)(C)=O)[C@H](OC)C2)CC(=O)[C@H](C)/C=C(\C)[C@@H](O)[C@@H](OC)C(=O)[C@H](C)C[C@H](C)/C=C/C=C/C=C/1C | 22 µM | < 0.0149 µM
13 | O=C(Nc1ccccc1)NS(=O)(=O)c1ccc(N2N=C3c4ccccc4CC3C2c2ccccn2)cc1 (stereo not drawn) | 50.7 µM | 17.3 µM
14 | N#Cc1c(C#N)c(-c2ccco2)n(-c2ccccc2)c1N | > 100 µM | 
15 | Nc1nnc(N)n1NC(=O)C(=O)Nc1ccc([N+](=O)[O-])cc1 | > 100 µM | 
16 | Cc1ccc2c(c1)SC(c1cc3c(cc1Br)OCO3)S2 (stereo not drawn) | > 31.6 µM | 
17 | O=C1c2ccccc2C(=O)c2c1ccc(C(=O)O)c2-c1ccc2ccccc2c1 | > 100 µM | 
18 | CN(C)/C=C(\C(=O)c1ccccc1)n1nc(-c2ccccc2)cc1-c1ccccc1 | > 10 µM | 
19 | COc1cc(S(=O)(=O)Nc2nc(-c3ccc(N)cc3)cs2)ccc1Cl | > 100 µM | 
20 | C[n+]1ccc(-c2cc[n+](C)cc2)cc1 | > 100 µM | 
21 | O=c1oc2ccc(Cl)cc2c(=O)n1-c1cc(C(F)(F)F)cc(C(F)(F)F)c1 | 6.7 µM | 0.312 µM
22 | O=C1OC(C2=CC(=O)c3ccccc3C2=O)C(Cl)=C1Cl (stereo not drawn) | > 100 µM | 

Row | SMILES | TGI | GI50
23 | COc1ccc(/C=C/C(=O)c2ccc3cc(OC)c(OC)cc3c2)cc1OC | 90.8 µM | 3.86 µM
24 | CC[C@H](C)[C@H](NC(=O)Nc1ccccc1)C(=O)N(C)[C@H](C[C@@H](OC(C)=O)c1nc(C(=O)N[C@@H](Cc2ccccc2)C[C@H](C)C(=O)OC)cs1)C(C)C | > 100 µM | 7.78 µM
25 | Nc1c(C(=O)c2cccc(CCC3(O)CCCC3)c2)cnn1-c1ccc(F)cc1 | > 25 µM | > 25 µM
26 | CCOC(=O)C(Cc1ccccc1)NC(=O)OC(C)(C)C (stereo not drawn) | > 100 µM | 
27 | CCOC(=O)CCC(NC(=O)c1ccc(Nc2nc3ccccc3n3cccc23)cc1)C(=O)OCC (stereo not drawn) | 23 µM | 
28 | O=C(O)c1nc2ccccc2nc1Nc1ccc(F)cc1 | > 100 µM | 
29 | O=c1cc(O)c2ccccc2o1 | > 100 µM | 
30 | O=C(O)c1ccc(NCc2nc3cc4ccccc4cc3[nH]2)cc1 | > 100 µM | 
31 | C#C[C@@]1(O)[C@@H](CO)O[C@@H](n2ccc3c(N)ncnc32)[C@@H]1O | 6.08 µM | 1.28 µM
32 | CC(=O)c1nc2ccccc2n1CC(=O)c1ccc(Cl)cc1 | > 100 µM | 
33 | CCCc1c(C(=O)OCC)[nH]c(-c2ccc(-c3[nH]c(C(=O)OCC)c(CCC)c3C(=O)OCC)o2)c1C(=O)OCC | > 100 µM | 
34 | COc1cc(Cn2ccc3c2-c2oncc2CC3)cc(OC)c1 | > 100 µM | 7.75 µM
35 | CC(=O)OCC1OC(n2c(=O)n(-c3ccccc3)c(=O)c3cc(Br)cc(Br)c32)C(OC(C)=O)C(OC(C)=O)C1OC(C)=O (stereo not drawn) | > 100 µM | 
36 | O=C(/C=C\c1ccccc1)Oc1ccc(/C=C2\CCCCC2=O)cc1 | > 100 µM | 
37 | COc1ccc2nc(NC(=O)C(=O)C(C(=O)c3ccccc3-c3ccccc3)C3OC(=O)c4ccccc43)sc2c1 (stereo not drawn) | 61.5 µM | 
38 | N#CCN1CCOCCOCCN(CC#N)CCOCCOCC1 | > 100 µM | 
39 | Cc1cc(=O)oc2c1cc(OCC(=O)OCCN1CCCCC1)c1occ(C)c12 | > 100 µM | 
40 | COC(=O)[C@@H]1C2OC(C)(C)OC2CN1C(=O)OCc1ccccc1 (stereo partly drawn) | > 100 µM | 
41 | O=C(CC(=O)Nc1ccccc1O)Nc1ccccc1O | > 100 µM | 
42 | Nc1ncnc2c(C3OC(CO)C(O)C3O)[nH]nc12 (stereo not drawn) | 9.51 µM and 11.6 µM | 0.0781 µM
43 | CCOC(=O)N1N=NC2C3OC(C[C@@]3(C#N)OC(C)=O)[C@H]21 (stereo partly drawn) | > 100 µM | 
44 | CCOC(=O)c1ccc(Nc2sc(C(=O)c3cccc([N+](=O)[O-])c3)c(N)c2C#N)cc1 | 42.6 µM | 0.311 µM
